Assay results: paper PMC4336329 (PLoS ONE, 2015)
Among all 310,000 compounds or so, about 14,000 (4.5%) showed an effect of 50% or more. Effects have a minus sign here. The list shows a part of the results.

Each compound was assayed against human ether-à-go-go-related gene (hERG) potassium channel (human, UniProt Q12809) (assay: primary screen, population patch clamp on CHO cells stably expressing hERG).
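Also: peak tail current of the secondary pulse compared with the same well before compound.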

human ether-à-go-go-related gene (hERG) potassium channel, sequence (Q12809 whole entry, looked up): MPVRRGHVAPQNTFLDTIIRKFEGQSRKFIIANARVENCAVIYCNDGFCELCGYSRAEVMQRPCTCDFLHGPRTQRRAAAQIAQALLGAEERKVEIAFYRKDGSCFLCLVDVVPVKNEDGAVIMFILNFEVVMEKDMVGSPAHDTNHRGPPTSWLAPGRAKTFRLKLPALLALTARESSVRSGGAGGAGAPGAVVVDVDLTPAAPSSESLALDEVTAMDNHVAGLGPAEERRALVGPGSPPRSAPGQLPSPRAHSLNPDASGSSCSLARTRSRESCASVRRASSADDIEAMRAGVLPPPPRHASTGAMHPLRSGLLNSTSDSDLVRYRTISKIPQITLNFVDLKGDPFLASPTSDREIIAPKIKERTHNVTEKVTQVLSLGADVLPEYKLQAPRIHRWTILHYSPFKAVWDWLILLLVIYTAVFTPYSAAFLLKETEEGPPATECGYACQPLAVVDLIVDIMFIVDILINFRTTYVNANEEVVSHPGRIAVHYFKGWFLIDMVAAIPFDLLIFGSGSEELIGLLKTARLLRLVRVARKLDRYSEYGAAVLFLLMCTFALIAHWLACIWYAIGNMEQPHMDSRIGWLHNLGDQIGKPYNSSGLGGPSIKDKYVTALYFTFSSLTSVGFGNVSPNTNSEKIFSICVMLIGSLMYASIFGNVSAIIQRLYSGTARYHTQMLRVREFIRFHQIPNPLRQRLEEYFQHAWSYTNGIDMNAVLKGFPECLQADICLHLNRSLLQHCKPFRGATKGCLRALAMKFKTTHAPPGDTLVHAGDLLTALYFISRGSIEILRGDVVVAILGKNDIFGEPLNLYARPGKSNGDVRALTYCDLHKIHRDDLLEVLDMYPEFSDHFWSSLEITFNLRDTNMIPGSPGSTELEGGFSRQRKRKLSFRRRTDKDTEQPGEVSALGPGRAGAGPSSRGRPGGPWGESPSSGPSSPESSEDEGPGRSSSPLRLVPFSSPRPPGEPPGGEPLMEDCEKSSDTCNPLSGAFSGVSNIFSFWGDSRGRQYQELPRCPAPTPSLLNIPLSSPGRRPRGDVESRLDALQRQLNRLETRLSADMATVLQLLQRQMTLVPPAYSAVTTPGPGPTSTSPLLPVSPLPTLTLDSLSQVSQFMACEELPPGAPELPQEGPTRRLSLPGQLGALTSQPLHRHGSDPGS

Structure (SMILES) | hERG current change (%, negative = inhibition) at 10uM
Cc1cccc(OCC(=O)N(Cc2ccc(N(C)C)cc2)C2CCS(=O)(=O)C2)c1 (stereo not shown) | 3.86%
COc1ccc(NS(=O)(=O)c2ccc(Cl)s2)cn1 | 7.99%
Cc1[nH]c(=O)[nH]c(=O)c1S(=O)(=O)N1CCC(C(=O)N2CCN(c3cccc(C(F)(F)F)c3)CC2)CC1 | 31.2%
CCOC(=O)N1CCN(C(=O)N2CCOCC2)CC1 | -12.6%
CCc1nnc(NC(=O)CSc2nnc(-c3ccccc3O)n2-c2ccc(C)cc2C)s1 | 7.78%
Nc1nc(-c2ccc(-n3nncc3-c3ccco3)cc2)cs1 | -4.01%
CSc1nc2ncc(C(=O)O)c(N)n2n1 | 8.85%
COc1ccc(C(=O)CSc2nc(N)nc(SC)c2C#N)cc1 | -3%
COc1cc(OC)cc(C(=O)NCC2CCCN(C(=O)c3csc(C(C)C)n3)C2)c1 (stereo not shown) | -3.67%
CCc1ccc(C(=O)OCC(=O)Nc2cccc(S(=O)(=O)NC3=NCCCCC3)c2)cc1 | -13.1%
C=CCN(C(=O)CCS(=O)(=O)c1cccc2nsnc12)c1ccccc1 | -11.5%
Nc1c(N2CCCCC2)c2ccccc2oc1=O | -7.42%
O=C(COC(=O)C1=COCCO1)Nc1ccc(OC(F)F)cc1 | -1.13%
COC(=O)C1=CN(c2cc(C)cc(C)c2)C=C(C(=O)OC)C1c1ccc(OC)c(O)c1 | 10.9%
COc1cccc(C(=O)NCC(c2cccs2)N2CCOCC2)c1 (stereo not shown) | -1.76%
O=C(CN(Cc1ccc(Cl)cc1)C(=O)c1csnn1)NCc1ccc(F)cc1 | -66.6%
Cc1cccc(C(=O)N2CCCC(Nc3ccc(C(C)C)cc3)C2)n1 (stereo not shown) | 0.95%
CN(C)/C=C(\C#N)C(=O)c1cccc(Oc2ccc(Br)cc2)c1 | -28%
COc1ccc(NC(=O)N2CCOCC2)cc1 | 18.4%
COc1ccc(CNc2ccc(C)cc2)cc1Br | 14.4%
COc1ccc(-c2noc(CN(C(=O)c3cccs3)C(C)C)n2)cc1 | -28.6%
CN1CCN(S(=O)(=O)c2ccc(NC(=O)c3cccc(S(=O)(=O)N4CCCC4)c3)cc2)CC1 | -3.81%

Structure (SMILES) | hERG current change (%, negative = inhibition) at 10uM
O=C(CCNC(=O)c1ccccc1Cl)Nc1cc(S(=O)(=O)N2CCOCC2)ccc1N1CCOCC1 | -27.3%
C=CCOc1ccc(/C=C2\SC(=S)N(NS(=O)(=O)c3ccc(C)cc3)C2=O)cc1 | -3.29%
CN1C(=O)c2cccc3c(S(=O)(=O)Nc4ccccc4F)ccc1c23 | -4.24%
COCCNC(=O)c1cc(-c2cccc(OC)c2)on1 | 16.6%
Cc1cccc(COCC(Cc2ccccc2)N2CCN(C(=O)c3ccc(C(F)(F)F)cc3)CCC2=O)c1 (stereo not shown) | -13.1%
Cc1ccc(C(=O)NC2CCCc3c2cnn3-c2ccc(F)cc2F)cn1 (stereo not shown) | 7.46%
Cc1ccc(S(=O)(=O)N2CCOCC2)cc1C(=O)NCC1CCCCC1 | -4.28%
COc1ccc(C(C)NC(=S)NCc2ccc(F)cc2)cc1 (stereo not shown) | 0.1%
O=C(NNC(=O)c1cc2c(s1)CCCC2)c1ccccc1 | 5.28%
C=CCOc1cccc(C(=O)N2CCCC(Nc3ccc4c(c3)OCCO4)C2)c1 (stereo not shown) | -1.22%
COc1cccc(CN(C)C(=O)Nc2cccc(C(F)(F)F)c2)c1OC | -4.73%
c1ccc2c(c1)Cc1cc(CN3CCOCC3)ccc1-2 | -7.2%
C/C(=N\NC(=O)COc1ccc(C(C)(C)C)cc1)c1ccccc1 | 19.6%
O=C(COc1ccccc1Cl)NNC(=O)c1ccc(-n2cncn2)c([N+](=O)[O-])c1 | 10.9%
Cc1cccc(NC(=S)N(CCN(C)C)Cc2cccs2)c1 | -25.8%
CC(C)(C)SCCNS(=O)(=O)c1ccc2ccccc2c1 | -16.7%
CCOc1ccc(-n2c(O)c(/C=N/NC(=O)C3COc4ccccc4O3)c3ccccc3c2=O)cc1 (stereo not shown) | 2.95%
O=C(NCc1ccccn1)C1CCCN(S(=O)(=O)c2cccc3nsnc23)C1 (stereo not shown) | 7%
O=[N+]([O-])c1ccc(C2C3C(c4ccccc4)=NC4(CCCC4)N32)cc1 (stereo not shown) | -22%
Cc1cc(C)c(NC(=O)CN(C)CC(=O)N(C)CC(=O)Nc2c(Cl)cccc2Cl)c(C)c1 | 9.65%
Cc1ccc(Nc2c([N+](=O)[O-])c(=O)n(C)c3ccccc23)cc1C | -21.3%
